# Measurements taken from the supplement of paper PMC10126150.
# Sequences with one replicate were seen in a single cluster, so their values are uncertain.
# System: ATP
# Experiment: switch fluorescence ratio, 500 uM ATP over buffer (Cy3 cluster intensity, sum of 5 cycles each) (fold (ratio)); higher = stronger signal-on switching upon ATP binding; sequences stand for … in TCGTCGGCAGCGTCAGATGTGTATAAGAGACAGTTTTTTTTTTTTTTTTTTTTTTTTT…TC
# Conditions: aptamer strand: ATP DNA aptamer (quencher-CACCTGGGGGAGTATTGCGGAGGAAGG + anchor), 100 nM annealed; ATP concentration: 500 uM; one replicate
# How it was run: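 After annealing to 100 nM quencher-labelled ATP aptamer, Cy3-labelled switching-strand clusters on a modified Illumina MiSeq flow-cell were imaged in selection buffer. A second image followed after 15 min with 500 uM ATP at 22 °C, and five such buffer/ATP cycles were done, each separated by NaOH stripping and re-annealing. The fluorescence ratio, averaged per switch-domain sequence, is summed target-cycle over summed buffer-cycle Cy3 intensity per cluster, with clusters outside 100-1000 RFU excluded.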
# 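Note: ATP exposure 15 min at 22 °C before imaging.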
row,Sequence,switch fluorescence ratio
1,GAGGCCAAGT,0.979
2,GAGGCCACTG,1.07
3,GAGGCCACTT,1.01
4,GAGGCCCAGC,1
5,GAGGCCGAAT,1.04
6,GAGGCCGGTA,1.02
7,GAGGCCTAGG,1.03
8,GAGGCGAAGA,0.999
9,GAGGCGATTG,1.06
10,GAGGCGCGTC,1.02
11,GAGGCGTAC,1.51
12,GAGGCTGCGC,1.04
13,GAGGCTTGGA,1
14,GAGGGAATCT,1.04
15,GAGGGCCA,0.993
16,GAGGGCTGGC,1.06
17,GAGGGTAAGT,0.985
18,GAGGGTAGAA,0.971
19,GAGGTAACAC,1.06
20,GAGGTAATGA,1.04
21,GAGGTAGAGC,1.06
22,GAGGTCGGTT,0.986
23,GAGGTGGAAG,1.01
24,GAGGTGTAAT,0.975
25,GAGGTTCGCA,1.06

row,Sequence,switch fluorescence ratio
1,GAGGTTGTGA,0.949
2,GAGTAACAAC,1.05
3,GAGTAACTTT,0.996
4,GAGTAAGTAT,0.93
5,GAGTAATAAT,1.03
6,GAGTAATGAA,1.02
7,GAGTAATGAC,1.09
8,GAGTAGATGC,1.08
9,GAGTAGCAGT,1.04
10,GAGTAGCGCT,0.986
11,GAGTAGCTCT,1
12,GAGTAGGTGG,0.996
13,GAGTCACGGG,0.988
14,GAGTCATATA,1.04
15,GAGTCCAACG,1.04
16,GAGTCTTACT,1
17,GAGTGAATTC,1.05
18,GAGTGACACA,0.991
19,GAGTGCAAGC,1.11
20,GAGTGCCTT,1.01
21,GAGTGGATCG,0.98
22,GAGTGGTCGA,0.934
23,GAGTGTAAGG,0.985
24,GAGTTAAAC,1.05
25,GAGTTATGCC,0.889

row,Sequence,switch fluorescence ratio
1,GAGTTCACGA,1.11
2,GAGTTGCATC,1.01
3,GAGTTGGAC,1
4,GAGTTGTGGT,0.974
5,GAGTTGTGTT,1.04
6,GATAAAATAT,1
7,GATAAAATGG,1.03
8,GATAAACGGT,0.992
9,GATAAACGTA,0.989
10,GATAAATAGT,1.02
11,GATAAGAAGA,1.01
12,GATAAGAATA,0.966
13,GATAAGAATG,1.01
14,GATAAGAGAT,1
15,GATAAGCCCG,1.04
16,GATAAGGGAG,0.971
17,GATAAGGGGG,0.957
18,GATAATAA,1
19,GATAATCATG,1.02
20,GATAATCG,0.989
21,GATAATCGAT,1.01
22,GATAATGCTC,1.08
23,GATAATGTAC,1.11
24,GATACAGGGT,1.03
25,GATACATTTC,1.05

row,Sequence,switch fluorescence ratio
1,GATACCGGCC,1.69
2,GATACGCTCA,1.05
3,GATACTGGCT,1.02
4,GATACTTGCG,0.973
5,GATAGAACGC,1
6,GATAGAGGT,1.01
7,GATAGCAAAA,0.919
8,GATAGCCGCT,1.06
9,GATAGGATCA,1
10,GATAGGCTCC,1.02
11,GATAGGGAAG,0.976
12,GATAGTAAAG,1.02
13,GATAGTAGGA,1
14,GATAGTTCAT,0.991
15,GATAGTTTCC,1.09
16,GATATAAGTA,0.961
17,GATATACAGA,1.04
18,GATATACCGT,1.03
19,GATATCACGT,0.992
20,GATATCGCTT,1.05
21,GATATCTCAT,0.948
22,GATATGCATA,1.06
23,GATATTGAAA,0.941
24,GATATTGGTA,1.03
25,GATATTTACG,0.977
